This is an account of results in the BET-seq Pho4 binding data (Le et al. 2018).

Some of the results follow. The energies were worked out here from pooled read counts, against the library average; single values are noisy.

For this assay, the target named is T1, Pho4 (S. cerevisiae) (UniProt P07270).
T1 sequence: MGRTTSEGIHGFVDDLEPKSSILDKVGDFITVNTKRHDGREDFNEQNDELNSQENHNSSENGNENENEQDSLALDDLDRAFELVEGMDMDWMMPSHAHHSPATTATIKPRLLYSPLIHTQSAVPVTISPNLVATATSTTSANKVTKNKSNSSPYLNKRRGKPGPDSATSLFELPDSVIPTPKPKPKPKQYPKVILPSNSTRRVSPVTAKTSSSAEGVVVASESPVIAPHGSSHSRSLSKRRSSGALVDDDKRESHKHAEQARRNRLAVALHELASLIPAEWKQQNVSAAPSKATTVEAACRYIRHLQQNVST
As to the kind of experiment: relative binding free energy (BET-seq); higher = weaker binding. The note with it: reference: library average.
Regarding ATGCTCACGTGCGTGG, the “relative binding free energy” value came to 0.01 kcal/mol.

AGGATCACGTGGTTAA: the “relative binding free energy” value is -0.04 kcal/mol.

With TTTTTCACGTGCCGGT, the “relative binding free energy” value was determined as 0.22 kcal/mol.

As to TAGGACACGTGTGGGT, the “relative binding free energy” value was 0.03 kcal/mol.

Regarding TTTGACACGTGGACTG, the “relative binding free energy” value worked out at 0.14 kcal/mol.

As to GGCTTCACGTGGCAGT, the “relative binding free energy” value turned out to be 0.33 kcal/mol.

Consider GCGTTCACGTGCTGTT, for which the “relative binding free energy” value was determined as 0.22 kcal/mol.

As for TGGAACACGTGGGCAG, the “relative binding free energy” value was -0.05 kcal/mol.

As for TTGCTCACGTGATGTG, the “relative binding free energy” value amounted to 0.29 kcal/mol.

As to AGTTGCACGTGGATGG, the “relative binding free energy” value is 0.07 kcal/mol.

As for TTGGCCACGTGGCGTG, the “relative binding free energy” value was -0.13 kcal/mol.

As to TTATCCACGTGATTGG, the “relative binding free energy” value worked out at 0.12 kcal/mol.

As to TGATCCACGTGGGTGG, the “relative binding free energy” value is -0.12 kcal/mol.

For TGAGTCACGTGTATGA, the “relative binding free energy” value was found to be 0.05 kcal/mol.

On to AAATTCACGTGTGTCT, for which the “relative binding free energy” value was 0.25 kcal/mol.

Take GGCGTCACGTGTGGTA: the “relative binding free energy” value was found to be 0.11 kcal/mol.

For the sequence TGGTGCACGTGTTGGG, the “relative binding free energy” value is -0.03 kcal/mol.

With TGAGGCACGTGATCGG, the “relative binding free energy” value is 0 kcal/mol.

Take ATTTGCACGTGCATAT: the “relative binding free energy” value was -0.12 kcal/mol.

As for GAAAGCACGTGTCGTG, the “relative binding free energy” value came out at 0.08 kcal/mol.

Turning to TGAAACACGTGAGGCG, the “relative binding free energy” value was 0.33 kcal/mol.

Take ACTGTCACGTGTTGTC: the “relative binding free energy” value was 0.19 kcal/mol.

As for TATTTCACGTGTACAA, the “relative binding free energy” value turned out to be 0.43 kcal/mol.

For the sequence AGGTACACGTGGCTTA, the “relative binding free energy” value is 0 kcal/mol.

ATTTACACGTGTGGAA: the “relative binding free energy” value stood at 0.1 kcal/mol.

TCCGTCACGTGGAGGG: the “relative binding free energy” value came out at 0.12 kcal/mol.

Regarding GGATCCACGTGTTGAT, the “relative binding free energy” value is 0.09 kcal/mol.

Turning to AGGCTCACGTGTGTAA, the “relative binding free energy” value was determined as 0.24 kcal/mol.

Turning to CGGTTCACGTGTTGAT, the “relative binding free energy” value was 0.2 kcal/mol.

For the sequence GAAGGCACGTGAATGA, the “relative binding free energy” value was found to be 0.36 kcal/mol.

As for GTTAACACGTGTTCTT, the “relative binding free energy” value was determined as 0 kcal/mol.

In the case of CTGGACACGTGGGGGT, the “relative binding free energy” value is -0.1 kcal/mol.

Regarding CGTAACACGTGGTAGT, the “relative binding free energy” value was -0.16 kcal/mol.

For the sequence TTTATCACGTGATGGC, the “relative binding free energy” value was 0.15 kcal/mol.

Regarding GAATGCACGTGTATGT, the “relative binding free energy” value was 0.17 kcal/mol.

For the sequence GGTGACACGTGAGGTG, the “relative binding free energy” value turned out to be 0.31 kcal/mol.

Take GTTATCACGTGATTGC: the “relative binding free energy” value was found to be 0.23 kcal/mol.

Regarding TAATGCACGTGCGGTA, the “relative binding free energy” value was -0.08 kcal/mol.

With TTAGGCACGTGTTGTC, the “relative binding free energy” value was -0.13 kcal/mol.

On to GCAGGCACGTGTAGGG, for which the “relative binding free energy” value came out at 0.04 kcal/mol.

For TGGAACACGTGGGGGA, the “relative binding free energy” value is 0.03 kcal/mol.

As for GGTTTCACGTGTTGTC, the “relative binding free energy” value worked out at 0.5 kcal/mol.

For TAGTGCACGTGGCCGG, the “relative binding free energy” value is -0.03 kcal/mol.

With TGGGGCACGTGGTCCA, the “relative binding free energy” value was -0.21 kcal/mol.

Take TTGGTCACGTGTCTAA: the “relative binding free energy” value was -0.02 kcal/mol.

For AGTTTCACGTGAATAT, the “relative binding free energy” value turned out to be 0.25 kcal/mol.

Consider GGTGACACGTGTGGCA, for which the “relative binding free energy” value is 0.1 kcal/mol.

GGTAACACGTGGTCTG: the “relative binding free energy” value was -0.04 kcal/mol.

GGCTGCACGTGGATGG: the “relative binding free energy” value came out at 0.11 kcal/mol.

In the case of ATGGACACGTGAAGGG, the “relative binding free energy” value was found to be 0.2 kcal/mol.

Take TAATGCACGTGAAAGG: the “relative binding free energy” value was 0.26 kcal/mol.

With TTGGACACGTGAAAAA, the “relative binding free energy” value was 0.53 kcal/mol.

For TTGTACACGTGCTTGT, the “relative binding free energy” value amounted to 0.08 kcal/mol.

Take GTTTGCACGTGATGAT: the “relative binding free energy” value was determined as 0.08 kcal/mol.

Turning to AGGGTCACGTGTGCGA, the “relative binding free energy” value amounted to 0.05 kcal/mol.

As to ATGTGCACGTGGAAGA, the “relative binding free energy” value was 0.02 kcal/mol.

With TATTTCACGTGATAGT, the “relative binding free energy” value amounted to 0.19 kcal/mol.

With GGTCTCACGTGAGGAT, the “relative binding free energy” value was 0.46 kcal/mol.

Regarding GTTTGCACGTGTGGGG, the “relative binding free energy” value amounted to 0.08 kcal/mol.

On to TGTAACACGTGTTGTG, for which the “relative binding free energy” value was -0.04 kcal/mol.

For TTGTGCACGTGTCGCA, the “relative binding free energy” value was -0.03 kcal/mol.

For GTATTCACGTGGCGGG, the “relative binding free energy” value was found to be 0.09 kcal/mol.

For TGTGACACGTGGCTGT, the “relative binding free energy” value was -0.05 kcal/mol.
